# Test results published in publication PMC6919601, “Identification of Plasmodium dipeptidyl aminopeptidase allosteric inhibitors by high throughput screening” (PLoS ONE, 2019).
# Out of some 110,000 compounds screened, about 230 (0.21%) showed an effect of 50% or more. The list shows a part of the results.
# Molecular target: DPAP1 (Plasmodium falciparum, UniProt Q8IIJ9)
# Experiment: primary screen, percent inhibition; read by cleavage of a fluorogenic dipeptide substrate; higher = more effect of the substance
# Parameters: species or system P. falciparum D10 trophozoite lysates; single well
# 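Also: 30 min substrate incubation versus DMSO and 10 µM JCP410 controls.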
# DPAP1, sequence (Q8IIJ9 whole entry, looked up): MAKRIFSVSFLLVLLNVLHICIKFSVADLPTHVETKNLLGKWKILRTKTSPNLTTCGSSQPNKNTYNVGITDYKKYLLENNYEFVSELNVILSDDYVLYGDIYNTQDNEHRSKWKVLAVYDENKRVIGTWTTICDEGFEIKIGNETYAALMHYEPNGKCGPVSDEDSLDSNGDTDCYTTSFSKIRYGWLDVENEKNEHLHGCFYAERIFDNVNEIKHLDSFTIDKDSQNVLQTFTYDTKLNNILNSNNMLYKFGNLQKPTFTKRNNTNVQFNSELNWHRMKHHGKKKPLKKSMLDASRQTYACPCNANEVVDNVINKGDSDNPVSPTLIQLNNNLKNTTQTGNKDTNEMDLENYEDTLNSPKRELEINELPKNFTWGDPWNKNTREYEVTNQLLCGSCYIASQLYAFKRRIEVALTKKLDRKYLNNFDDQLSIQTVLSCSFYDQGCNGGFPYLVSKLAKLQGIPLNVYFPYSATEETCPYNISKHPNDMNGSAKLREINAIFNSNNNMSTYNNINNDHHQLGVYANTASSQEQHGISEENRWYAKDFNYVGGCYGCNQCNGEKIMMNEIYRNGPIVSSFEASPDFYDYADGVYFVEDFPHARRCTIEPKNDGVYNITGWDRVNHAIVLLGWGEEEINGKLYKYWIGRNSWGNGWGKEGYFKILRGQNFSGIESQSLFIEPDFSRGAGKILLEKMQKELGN
row,SMILES,% Inhibition @ 10 uM [%]
1,O=C(CSC1CC(=O)N(c2cccc(Br)c2)C1=O)Nc1ccc(Cl)cc1 (stereo not shown),14.2
2,CCN(CC)CCN1C(=O)C(O)=C(C(=O)c2ccc(F)cc2)C1c1cccs1 (stereo not shown),-9.12
3,Cc1cc(NC(=O)Cn2ncc3c4ccccc4nc-3c2O)no1,1.9
4,CCC(=O)c1cn(CC(=O)N2CCCC2)c2ccccc12,-5
5,C=CCSc1nnc(-c2ccc(Br)cc2)o1,4.35
6,CCOc1ccc(Sc2cc(C(=O)N3CCCC3)c3ccccc3n2)cc1,1.62
7,COc1cc(C(=O)/N=c2\sc(C)c(-c3ccc(C)cc3)n2C)cc(OC)c1OC,-6.05
8,O=C(Nc1ccccc1)c1nc2ccccc2s1,5.39
9,Cn1c(=O)[nH]c(=O)c2c1nc1n2CCS1,5.54
10,O=C(NC(Cc1ccccc1)C(=O)NCc1ccccn1)c1ccccc1 (stereo not shown),-0.173
11,Cc1sc(NC(=O)COc2ccc(C(C)(C)C)cc2)c(C(N)=O)c1C,-4.54
12,CC(C)CCNC(=O)Cn1c2c(c(-c3ccccc3Cl)cc1=O)CCC2,5.47
13,CCN(CC)CCNC(=O)/C(=C/c1cn(CC)c2ccccc12)NC(=O)c1ccc(C)cc1,-0.0235
14,CCC(C(=O)NC1CCCC1)n1c(SCc2ccc(F)cc2)nc2ccncc21 (stereo not shown),5.73
15,Cc1ccc2c(CNCc3ccc(C)o3)c(C(=O)O)[nH]c2c1,-4.46
16,Cn1c(=N)n(CC(=O)c2ccc(Cl)cc2)c2ccccc21,-6.65
17,COc1ccccc1Nc1[nH]nc(C)c1[N+](=O)[O-],6.43
18,Cc1ccc(CNC(=O)Cn2ncc3ccsc3c2=O)cc1,-6.52
19,COc1cccc(C(=O)C2=C(O)C(=O)N(CCCn3ccnc3)C2c2cccs2)c1 (stereo not shown),-1.44
20,O=c1cccc2n1C[C@H]1C[C@@H]2CN(Cc2ccccc2O)C1,-4.55
21,CCOc1ccc(NC(=O)CNS(=O)(=O)c2ccccc2)cc1,2.6
22,COc1ccc(C(=O)Nc2nc(C)c3cc4c(cc3n2)OCO4)cc1,-4.42
23,Cc1c(C(=O)O)nn(-c2cccc(C(F)(F)F)c2)c(=O)c1C#N,2.69
24,O=C1NC(c2ccc(Br)cc2)=N/C1=C/c1ccccc1F,-0.591
25,O=C(NCc1ccc2c(c1)OCO2)C1=Cc2sc3c(c2CS1)CCCC3,-1.08
26,C/C(=N\N=C(/C)c1cccnc1)c1cccnc1,-5.6
27,Cc1cc(O)c(C2=Nc3ccccc3SC(c3ccccn3)C2)c(=O)o1 (stereo not shown),-3.62
28,COc1ccc2c(CNC3CCC(C)CC3)c(C(=O)O)n(Cc3ccccc3F)c2c1 (stereo not shown),-1.97
